Consider 113 molecules from PubChem BioAssay AID1240 (Sanford-Burnham Center for Chemical Genomics, 2008).

Among all 50,000 compounds or so, about 800 (1.6%) showed an effect of 50% or more. Some of the results follow.

This assay concerns the target Bcl-2-like protein 10 (Homo sapiens) (UniProt Q9HD36). The assay is described as follows: Phenotype converters, Bcl-B/TR3 peptide binding displacement, primary biochemical FP (AID 1240).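 Also: 0% = Bcl-B with tracer peptide and DMSO and 100% = tracer peptide lacking Bcl-B.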 Conditions: GST-Bcl-B / FITC-TR3 peptide fluorescence polarization; stronger effect = higher value; compound at 3.75 mg/L.
Sequence of UniProt Q9HD36 (Q9HD36 whole entry, looked up): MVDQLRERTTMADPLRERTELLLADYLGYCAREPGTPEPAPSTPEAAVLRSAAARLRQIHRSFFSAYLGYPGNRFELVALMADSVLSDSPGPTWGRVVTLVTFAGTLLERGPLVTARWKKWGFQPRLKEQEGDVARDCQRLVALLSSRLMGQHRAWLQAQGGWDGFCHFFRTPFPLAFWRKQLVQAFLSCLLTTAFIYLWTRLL
In the case of `O=Cc1ccc(OCC(O)Cn2c3ccccc3c3ccccc32)cc1` (stereo not drawn), the displacement turned out to be 14.4%.
Next, `O=c1[nH]c(=O)n(-c2cccc(C(F)(F)F)c2)c(O)c1C=C1C=CC=N1`: 6.3%; `CCOC(=O)c1ccc(NC(=O)COc2ccc(OC)cc2)cc1`: 6.5%.
Next, `Cn1c(NCc2ccccc2)cc(=O)n(C)c1=O`: 3.7%.
Regarding `O=[N+]([O-])c1ccc(N=Cc2cc(I)cc(I)c2O)c(O)c1`, the displacement is -2.2%.
Turning to `Cc1ccc(C)c(NC(=O)c2sc3cc(C)ccc3c2Cl)c1`, the displacement is 7.6%.
Next, `COc1cc(C=C2C(=O)c3ccccc3C2=O)ccc1OCc1ccc(F)cc1`: 88.7%; `COc1cccc(CNc2ccc3c(c2)ncn3-c2ccccc2)c1OC`: 12%; `CCN1C(=O)/C(=C\c2cccc(C(F)(F)F)c2)SC1=S`: 10.5%.
Next, `COc1cc(OC)cc(C(=O)Nc2c(C)cccc2C)c1`: 20.4%; `Cc1cc(C)c(/C=C2/SC(N)=NC2=O)c(C)c1`: 4.6%.
Next, `Brc1ccccc1OCCCCCCN1CCOCC1`: 10%; `Cc1ccc(/C(N)=N/OC(=O)c2ccccc2F)cc1`: -14.1%; `CCOc1cc(C=NN2CCN(Cc3ccccc3)CC2)ccc1O`: -4%.
Turning to `CC(C)OC(=O)c1c(-c2ccccc2Cl)csc1N`, the displacement is -1.9%.
With `O=C(Nc1ccccc1C(=O)O)c1ccc(Br)c(S(=O)(=O)NCc2ccccc2)c1`, the displacement is -5.1%.
`O=C(/C=C/c1cccc([N+](=O)[O-])c1)Nc1ccc2nn(-c3ccccc3)nc2c1`: the displacement came out at 0.4%.
Next, `N#CC1=C(SCC(=O)OCc2ccccc2)NC(=O)CC1c1cccc2ccccc12` (stereo not drawn): 7.8%; `O=C(COc1ccccc1)Nc1cccc2nsnc12`: 1.2%; `CC(=O)c1cccc(NC(=O)c2ccc(-c3cccc(Cl)c3)o2)c1`: 1.1%.
Next, `CC1CCN(S(=O)(=O)c2ccc(NC(=S)Nc3ccccc3)cc2)CC1`: 7.6%; `CCOc1ccccc1NC(=O)c1c(NC(=O)COc2ccc(Cl)cc2)sc2c1CCC2`: -8.2%.
Next, `COc1ccc(S(=O)(=O)Nc2ccc(Oc3ccccc3)cc2)cc1OC`: 4.5%; `O=C(Nc1c(C(=O)N2CCN(Cc3ccccc3)CC2)cnn1-c1ccccc1)c1cccc(F)c1`: 3%.
On to `CC1=NNC(=O)C1CC(=O)N/N=C/c1cccc([N+](=O)[O-])c1` (stereo not drawn), for which the displacement is -3.4%.
Turning to `CC(=O)Nc1ccc(N/C(C)=C/C(=O)c2ccc(Br)cc2)cc1`, the displacement came out at 5.6%.
Next, `Cc1nn(CC(=O)Nc2cccc(O)c2)c(=O)c2ccccc12`: 7.1%.
Next, `COc1cc(NC(=O)c2ccccc2[N+](=O)[O-])cc(OC)c1`: -0.8%; `COc1ccccc1NC(=O)C1=C(C)NC(=S)NC1c1cccc(Cl)c1` (stereo not drawn): -24.4%.
Turning to `COc1ccc(C(=O)O/N=C(\N)c2ccc(OC)c(OC)c2)cc1`, the displacement is -5%.
Next, `COc1ccc(C(=O)Nc2cc(Cl)ccc2Cl)cc1NC(C)=O`: 2.3%.
Regarding `CNS(=O)(=O)c1cc(S(=O)(=O)NC)c2cccc3c2c1NC3=O`, the displacement turned out to be 4.7%.
Next, `C=C(C)CC1(O)CC(c2ccccc2)NC(c2ccccc2)C1CC` (stereo not drawn): 3%; `Nc1sc2c(c1C(=O)Nc1ccc(Br)cc1)CCCC2`: 25.3%.
Next, `Cc1cccc(NC(=S)NC(=O)c2ccco2)c1`: -6.4%; `O=C1NC(=O)N(c2ccc(Br)cc2)C(=O)/C1=C/c1ccco1`: 30.1%.
Next, `Oc1c(I)cc(I)cc1C=Nc1ccc2c(c1)oc1ccccc12`: 8.9%; `O=C(Nc1ccc(N=Cc2ccc([N+](=O)[O-])cc2)cc1)c1ccccc1Br`: 3.5%; `O=C(NCCCN1CCOCC1)C(=O)Nc1ccc(F)cc1`: 11.2%.
For the molecule `COc1ccccc1NCN1C(=O)S/C(=C/c2ccccc2F)C1=O`, the displacement came to 10.5%.
As to `Cc1c(C(=O)Nc2ccc(N3CCOCC3)cc2)cccc1[N+](=O)[O-]`, the displacement was -2.9%.
Next, `COc1ccc(N(CC(=O)Nc2ccc(Br)cc2)S(=O)(=O)c2ccc(C)cc2)cc1`: 1.8%; `O=C1NC(=O)N(c2ccc(Cl)cc2)C(=O)/C1=C/c1ccsc1`: -24.1%; `Cn1c(=O)c(-c2ccccc2N)nc2cc3ccccc3cc21`: 33.6%.
On to `CC1(C)Cc2ccccc2C(Sc2ccc(N)cc2)=N1`, for which the displacement stood at 10.5%.
Next, `Cc1ccc(OCC(=O)Nc2ccccc2-c2ccccc2)cc1`: 6.8%; `Cc1nc(SCC(=O)c2ccccc2)c(C#N)c(C)c1C`: 8.3%; `COc1cc(CN2CCN(C3CCCCCC3)CC2)cc(OC)c1OC`: -0.4%.
Next, `COc1ccc(CNC(=O)CCc2ccccc2)cc1`: -0.5%; `CN1CCN(C(=O)/C(=C/c2cccnc2)NC(=O)c2cccc(Br)c2)CC1`: 3.6%.
Next, `Cc1onc(-c2c(Cl)cccc2Cl)c1C(=O)Nc1ccc(S(=O)(=O)Nc2nccs2)cc1`: 2.2%.
Consider `COc1ccc(C(=O)Nc2ccc(Cl)c(-c3nc4ccccc4[nH]3)c2)cc1`, for which the displacement is -0.4%.
Next, `CCOc1cc(C=O)cc(I)c1OC(C)C`: -9.1%; `COC(=O)c1cc(C)sc1NC(=O)C1(C)CC1(Br)Br` (stereo not drawn): -42.7%; `N/C(=N\OC(=O)CCc1ccccc1)c1ccc([N+](=O)[O-])cc1`: -6.7%.
Next, `CC(O)CNC(=O)C(=O)Nc1ccc(N(C)C)cc1` (stereo not drawn): 12.9%; `Cc1cc(=O)n(-c2nc(-c3ccccc3)cc(-c3ccc(Br)cc3)n2)[nH]1`: -12.6%.
In the case of `O=C(c1cc2nc(-c3ccccc3)cc(-c3ccccc3)n2n1)N1CCOCC1`, the displacement is -2.8%.
Next, `O=C1c2ccccc2-c2nc3cc(Br)cnc3nc21`: 11%; `c1ccc(Nc2cccc3nonc23)cc1`: -15.8%.
Next, `COc1ccc(C2CC(=O)N(CCCN(C)C)C2)cc1` (stereo not drawn): -10.9%; `Cc1ccc(CNC(=O)C(=O)NCc2ccc(Cl)cc2)cc1`: -0.1%.
Next, `CC1(C2CC2)NN=C(c2ccccc2)S1` (stereo not drawn): -5%; `CCCCCCNc1cc(C)oc(=O)c1C(C)=O`: -7.3%; `O=C1CC(NCc2ccc3c(c2)OCO3)C(=O)N1c1ccc(OC(F)(F)F)cc1` (stereo not drawn): -15.6%.
For `CCN(CC)C(=Nc1ccccc1)n1cncn1`, the displacement stood at 6.2%.
Next, `CCc1c(C)c2ccc(OC)c(C)c2oc1=O`: -4%.
For `Cc1ccc(OCCOc2ccc(C=O)cc2)cc1C`, the displacement is 12.7%.
As for `O=C(Nc1cccc([N+](=O)[O-])c1)c1cc2ccccc2o1`, the displacement is -4.1%.
Next, `O=C(CSc1nc2ccccc2s1)c1ccc(-c2ccccc2)cc1`: -1.1%.
Turning to `COc1cccc(/C=N/N2CCN(Cc3cccc4ccccc34)CC2)c1OC`, the displacement was -9.5%.
Next, `CC(C)Oc1ccc(NC(=O)C23CC4CC(CC(C4)C2)C3)cc1`: 15.9%; `Cc1cccc(/C=N\Nc2nnc(-c3ccccc3)c(=O)[nH]2)c1`: -6.8%.
In the case of `CC(C)C1=NN2C(=N)/C(=C/c3ccc(-c4cccc([N+](=O)[O-])c4)o3)C(=O)N=C2S1`, the displacement worked out at 173%.
Next, `CCOc1ccc(CN2CCN(C(=O)c3ccco3)CC2)cc1`: 9%; `CC(=O)N/C(=C\c1ccccc1)C(=O)NCC(=O)O`: -6.9%.
Next, `Cc1sc(NC(=O)c2sc3ccccc3c2Cl)c(C(N)=O)c1C`: -3.2%; `O=C1/C(=C/Nc2ccccc2NS(=O)(=O)c2ccccc2)CCc2ccccc21`: 10.4%; `C=CCn1c(SCc2ccc(C(=O)NCCO)cc2)nc2sc3c(c2c1=O)CCCC3`: 19.3%.
Next, `OCCCNC(Nc1ccc(Cl)cc1)=C(c1ccccc1)c1ccccc1`: -5.7%.
Consider `COc1ccccc1N/C=C/C(=O)c1ccc(Cl)cc1`, for which the displacement is -4.5%.
As to `Cc1ccc(NC(=O)CN(c2cc(Cl)cc(Cl)c2)S(C)(=O)=O)cc1`, the displacement was found to be 1.9%.
Next, `Cc1cc(N2C(=O)c3ccc(S(=O)(=O)c4ccc(C(=O)O)cc4)cc3C2=O)ccc1[N+](=O)[O-]`: -7.7%; `CC(NC(=O)Cc1ccccc1)C1COc2ccccc2O1` (stereo not drawn): -10.4%.
Next, `OCn1c2ccc(Cl)cc2c2cc(Cl)ccc21`: -5.4%.
Next, `O=C1c2ccccc2NC(c2ccc(Cl)cc2Cl)N1Cc1ccccc1` (stereo not drawn): 14.4%; `Cc1ccc2nsnc2c1NC(=O)c1cccc2ccccc12`: -4.4%.
`Cc1ccc(S(=O)(=O)NCc2nnc(NC(=O)c3ccc(Br)cc3)s2)cc1`: the displacement was -0.6%.
Next, `COc1ccc(CNC(=O)CCCOc2ccc(Cl)cc2Cl)cc1`: -6.1%; `CC(=O)Nc1ccc(S(=O)(=O)N(c2cc([N+](=O)[O-])ccc2F)S(=O)(=O)c2ccc(NC(C)=O)cc2)cc1`: 4.8%.
Next, `CCOC(=O)C(=CC(=CN(C)C)C=C(C(=O)OCC)C(=O)OCC)C(=O)OCC`: -9.5%.
Next, `COc1ccc(OC)c(C2/C(=C(\O)c3ccccc3)C(=O)C(=O)N2c2cccc(Cl)c2)c1` (stereo not drawn): -1.8%; `Cc1cc(OCC(=O)NCCc2ccccc2)ccc1Cl`: 8.5%.
For `CCCc1cc(=O)n2[nH]c(-c3cccc(Cl)c3)cc2n1`, the displacement was determined as 8.8%.
Next, `Cc1cc(C)n(-c2nc(Nc3ccccc3C(F)(F)F)nc(-n3nc(C)cc3C)n2)n1`: 11.4%; `CCCC(=O)Nc1ccc2oc(-c3ccc(OC)c(Cl)c3)nc2c1`: -14.6%.
As for `CCN1CCC2(CC1)CC1CC3C=CC1(CN2C(C)=O)O3` (stereo not drawn), the displacement came to 7.3%.
On to `CC(NC(=O)C(=O)Nc1ccc(F)cc1)c1ccccc1` (stereo not drawn), for which the displacement was 4.6%.
Next, `CCc1c(C)nc2c(C)c(-c3ccc(C)cc3)[nH]n2c1=O`: 6.7%; `O=C(O)C(Cc1ccccc1)NC(=S)Nc1ccccc1` (stereo not drawn): 1.7%.
In the case of `COC(=O)C1=CNC=C(C(=O)OC)C1c1cccs1`, the displacement is 2.9%.
Turning to `CC(=O)C(Sc1ccccc1)C(=O)c1ccccc1` (stereo not drawn), the displacement is -4.8%.
As for `COc1ccccc1/C=C1\SC(N2CCCC2)=NC1=O`, the displacement was -137%.
On to `O=C1/C(=C/c2ccc(-c3ccc([N+](=O)[O-])cc3)o2)SC(=S)N1Cc1ccco1`, for which the displacement was -8.5%.
For `S=c1[nH]ncn1/N=C/c1ccc(Br)cc1`, the displacement is -9.1%.
Next, `CC(C)c1ccc(C2/C(=C(\O)c3ccc(F)cc3)C(=O)C(=O)N2c2nccs2)cc1` (stereo not drawn): 15.6%.
Next, `COc1cc(Br)c(CN2CCN(Cc3cc(OC)c(OC)c(OC)c3)CC2)cc1OC`: -0.7%; `CCC(c1ccccc1)c1nnc(NC(=O)Nc2ccccc2)s1` (stereo not drawn): 7.1%; `O=C(c1ccc(F)cc1)N1CCN(Cc2ccc(F)cc2)CC1`: 11.1%.
Next, `COc1ccccc1/C=C/C(=O)c1c2c(c(C)[nH]c1=O)CCCC2`: -1.1%; `CCOc1cc(/C=N/N2CCN(c3ccccn3)CC2)ccc1O`: -3.3%.
For `CSc1nnc2c(n1)OC(c1ccc(N(C)C)cc1)Nc1ccccc1-2` (stereo not drawn), the displacement is 10.8%.
Next, `CSc1ccc(C=Nc2ccc(C#N)cc2)cc1`: 7.1%.
